The supplement of paper PMC11417369
The other results are listed elsewhere or left out.

system: PfSIP2 AP2 domain 1 (GST-tagged); test: gcPBM binding intensity (ln(normalized median fluorescence intensity)); higher = stronger DNA binding
How it was run: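 Probes on an Agilent 4 × 180k array were primer-extended, double-stranded and 36 bp long, taken from intergenic genomic regions, with negative controls added. GST-tagged P. falciparum DNA-binding domains from E. coli, about 25 μg on average, were applied to the array for 1 h in 1× PBS containing 1% milk, 0.2 mg/ml BSA, 0.5% salmon testes DNA and 0.03% Triton X-100. Binding intensity, obtained after Alexa488 anti-GST antibody detection and a 488 nm scan, is the highest Masliner-normalised natural-log median intensity across replicate spots of either probe orientation.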

| Sequence | gcPBM binding intensity (ln) |
| --- | --- |
| ATTGATCGGATAAAATGTACAAATATATATATATAT [XGTACX_site7345] | 9.15 |
| AAATTATAATATAATACACACATAAAAAAAAAATCA [CACACA_site3634] | 6.88 |
| TATATATATATATATTGTACACATATATATTTACGA [XGTACX_site4791] | 9.46 |
| AAAAAATAATAAATCACACATATTATATATATATAT [CACACA_site5838] | 9.23 |
| AACATGAAAGATAGCAAAAAAAAAAAAAAAAAAAAA [TGCATGCA_negctrl_site607] | 6.87 |
| TCTTTTTTTATTTTATTTTTTTTTTTTAAATAATTC [TGCATGCA_negctrl_site372] | 6.71 |
| CATATTAATATTATGGGTACATATAAATTTACATTC [XGTACX_site687] | 7.13 |
| ATTATAATATTGTTATGTACATAAAAATTATTGAAT [XGTACX_site4476] | 7.37 |
| AAAACATAAATACATACACACATAATATATATTAAT [CACACA_site109] | 7.06 |
| ATAATATATTTATAATGTACATAAGAACAAATTAAA [XGTACX_site1745] | 7.09 |
| GGTATATTAAAATAGGTGCATAAAACTAAGAGAAAA [GTGCAC_site9781] | 11 |
| ACGTTTGATACACATAAAGTTTTCCTTTGAATGTAC [CACACA_negctrl_site106] | 7.08 |
| AAAAATTACCTGACTTGTACATAATTTAAGAACAAT [XGTACX_site6233] | 7.01 |
| TGTGCTATATTCATATGTACATATAATTATTATATA [XGTACX_site3549] | 7.3 |
| ATAAAATAAAAGTGTACACAAGAAAATATGTTATGT [CACACA_site6033] | 7.44 |
| AATAATACACAATTTTGTACGTATTTAAAATATATT [XGTACX_site45] | 7.38 |
| TATTTATGAGAAATAGTGCAAAGATATGATCTTTAA | 8.12 |
| AATTAAAAACATTTCACACATAAAAATGAAATATAT [CACACA_site5199] | 6.77 |
| TAAAATATATAATAATGTACATATTTTTATTTAGGA [XGTACX_site4987] | 6.84 |

| Sequence | gcPBM binding intensity (ln) |
| --- | --- |
| TTCAATTTTTTATGAACACACAAAAAAAAAAAAAAA [CACACA_site2533] | 7 |
| ACATAATTAACAAATACACACACACCCACCCACAAA [CACACA_site8069] | 7.25 |
| ATATATAAGGATGTCACACATAAATATTAACACTAA [CACACA_site5101] | 7.06 |
| AAGAAAAAATATATATATATATATATATATAATATG [TGCATGCA_negctrl_site417] | 8.04 |
| TTATATTATTTTTATACATGCATTTCTATATATTTT [TGCATGCA_site164] | 7.31 |
| TATATTAAATAAAAAGTGCATGTCTCATAAGATGGA [GTGCAC_site9520] | 8.49 |
| TATAAATAAAGCAGTACACACATTTATTTTAGATAC [CACACA_site7566] | 7.14 |
| ATAAAATGTTAAGGGTGTACTTTACACATCTCCTAT [XGTACX_site4699] | 6.98 |
| ATAGGGAATTTATGCACACAGTTAAGGGGGAAAATT [CACACA_site5183] | 7.85 |
| TTTATACTATAATTATGTACTTATAAAAGGAATAAA [XGTACX_site8027] | 7.42 |
| ATAAACACATCTATATGTACATATATATATATATAC [XGTACX_site347] | 7.35 |
| ATGTAAATACATATATGTACACAAATATATATATAT [XGTACX_site3537] | 9.45 |
| TATATAAATATACATTGTACTCAACATTTTCATTAA [XGTACX_site3690] | 6.99 |
| TGTATTAATAAAAATACACACATCATATTATAGAAA [CACACA_site7629] | 6.96 |
| TATAAGATTATACAAAGTACATATAAATAATATATT [XGTACX_site1917] | 6.76 |
| ATATATATATAAATATGTACATATATATATTATATA [XGTACX_site120] | 8.65 |
| TTAAAAAAAGATTATACACACACATATATAAACATA [CACACA_site8136] | 7.05 |
| TCCTCTTTTATTTTTACACACGCGTAAACATATATA [CACACA_site667] | 7.65 |
| TGAAATAAAAAATATAGTACTCGTTCGTAACCAAAA [XGTACX_site413] | 7.12 |

| Sequence | gcPBM binding intensity (ln) |
| --- | --- |
| ATGGGTTAAAAATGCACACAAAAAAATATACAGATA [CACACA_site4321] | 7.79 |
| TTATATATATTTAAAAAAATAACATAAATAAATAAA [CACACA_negctrl_site347] | 6.91 |
| TTAAATAAAAGGTTTAGTACTTAAAATAAGAAATGA [XGTACX_site6341] | 6.91 |
| GTAAATATAAACTCAGCACACAAACATATATATGTC [CACACA_site9326] | 6.92 |
| CACTTTTTTTTTTACTGTACATATACAAATTAAAAA [XGTACX_site1565] | 7.37 |
| TTTTATTTATCTTAATGTACACATTTATATATATAT [XGTACX_site8588] | 9.14 |
| TATAATAATTAAAAGTGTACTAAATTTTTACATATA [XGTACX_site2523] | 6.94 |
| TGGGTGTAGAACAATTGTACTTTGTAAAAATATAAG [XGTACX_site8464] | 6.96 |
| TTTTTTTTCAATGGTTGTACAAAGTAAAACAACAAA [XGTACX_site1582] | 7.2 |
| ATCCATCTTTTAATTTGTACTTATTCTTTTTTCTTT [XGTACX_site5299] | 7.04 |
| ATTAGTTTTATATATAGTACATATAATTTTGAAGGT [XGTACX_site7445] | 7.53 |
| ATATATATATGTAATAGTACATATGATAGTTTGTCA [XGTACX_site1545] | 9 |
| TTGTAATTTATTCAAACACACAATTTGGACCTTTTT [CACACA_site1063] | 6.7 |
| TATTCATAATTTTAATGTACAAAATGGTTTGTAATA [XGTACX_site8493] | 6.82 |
| AAAGATAAATTAAAAAGTACATATTTATTCAATGTA [XGTACX_site8543] | 6.86 |
| TATGATATATATAATACACACATATACATAAGATCT [CACACA_site1119] | 6.94 |
| AATATATATATATTATCACACACTCACGTTTGACAA [CACACA_site8130] | 7.22 |
| TAAAAAAAACGAACAAGTACACATAAAAAAAAATTA [XGTACX_site5982] | 6.9 |
| ATTATATCATATATATGTACACATATATAACATGAT [XGTACX_site7] | 7.18 |
